This note sets out measurements from PubChem BioAssay AID1346428 (National Center for Advancing Translational Sciences (NCATS), 2018).

Each structure is given as a SMILES string. Screen size: about 48,000 compounds; about 1,200 (2.5%) were called active. Not shown: some 2% with an inconclusive outcome.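 How the source made its calls: active means activation of at least 60% and not above a set upper limit (about 1 call in 100 departs from these limits); inconclusive means activation of 40% to 60%, or above that upper limit; inactive means activation under 40%.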 Some of the results follow.

This experiment concerns the target Probable G-protein coupled receptor 32 (Homo sapiens) (UniProt O75388). The experiment can be described thus: qHTS for Agonists of Human Resolvin D1 Receptor DRV1. Further: 0% is about no effect. The following applies: CHO-K1 GPR32 beta-arrestin PathHunter luminescence, 90 min; at 76.9 µM; hits give high values; zero percent set by DMSO-only wells. The method in brief: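 Engineered CHO-K1 line co-expressing GPR32-ProLink and EA-beta-arrestin. Compound treatment lasted 90 min at 37 °C. Luminescence was recorded after 1 h with substrate at ambient temperature, relative to DMSO basal wells.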
UniProt O75388, sequence (O75388 whole entry, looked up): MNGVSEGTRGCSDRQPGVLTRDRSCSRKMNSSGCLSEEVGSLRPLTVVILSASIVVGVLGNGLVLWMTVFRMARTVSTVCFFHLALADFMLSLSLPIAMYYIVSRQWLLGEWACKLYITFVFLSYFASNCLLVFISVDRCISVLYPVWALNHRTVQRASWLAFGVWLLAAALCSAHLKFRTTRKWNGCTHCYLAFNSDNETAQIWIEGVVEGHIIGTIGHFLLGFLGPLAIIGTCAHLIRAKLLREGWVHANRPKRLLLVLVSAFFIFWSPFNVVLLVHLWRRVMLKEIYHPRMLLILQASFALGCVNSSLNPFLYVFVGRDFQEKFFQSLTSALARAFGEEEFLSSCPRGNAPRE
(In general: qHTS replaces the single test concentration by a dilution series.)
Regarding `CCOC(=O)COc1ccc(C)cc1C(=O)c1ccn2nc(-c3ccc(C)cc3)cc2n1`, the activation was inactive: -7.3%.

For `COC(=O)c1ccc(OCC2c3cc(OC)c(OC)cc3CCN2C(=O)C(C)C)cc1` (stereo not drawn), the activation is inactive: -3.42%.

Turning to `COCCNC(=O)c1ccc(CSc2nc3ccncc3n2Cc2ccccc2)cc1`, the activation was inactive: 26.8%.

In the case of `O=C(CSc1ncc2c(n1)-c1ccccc1N(Cc1ccccc1)S2(=O)=O)Nc1ccccc1`, the activation is inactive: -7.06%.

Regarding `COc1cccc(NC(=O)CSc2nc3ccccc3n2C)c1`, the activation was inactive: 2.82%.

Take `CCC(=O)N1CCc2cc(S(=O)(=O)CCC(=O)N3CCN(c4cc(C)ccc4C)CC3)ccc21`: the activation was inactive: -3.2%.

Regarding `COc1ccc(OC)c(NC(=O)CN(C)S(=O)(=O)c2ccc3[nH]c4c(c3c2)CCCC4)c1`, the activation was inactive: -0.456%.

`CCOc1ccc(NC(=O)c2c(NC(=O)Cc3ccccc3)sc3c2CCC(C)C3)cc1` (stereo not drawn): the activation is inactive: -11.2%.

As for `COCCCNC(=O)C1CCN(Cc2nc(-c3ccc(OC)c(OC)c3)oc2C)CC1`, the activation is inactive: -8.06%.

As to `Cc1ccc(NC(=O)Cn2c(=O)n(Cc3ccco3)c(=O)c3ccc(C(=O)NC4CCCC4)cc32)c(C)c1`, the activation is inactive: -12.2%.

In the case of `COc1ccc(Cn2nnc(C(=O)Nc3cc(OC)ccc3OC)c2N)cc1`, the activation was inactive: -1.56%.

With `COc1ccc(OC)c(CCNC(=O)c2c(C)nn(-c3ccc(F)cc3)c2-n2cccc2)c1`, the activation is inactive: 0.888%.

On to `CCOc1ccc(C(=O)NCC(c2ccc3c(c2)OCO3)N2CCN(c3ccccc3F)CC2)cc1` (stereo not drawn), for which the activation was inactive: -25.6%.

For `Cc1nnc(N2CCC(C(=O)NC3CCCCC3)CC2)c2nn(-c3ccc(Cl)cc3)c(C)c12`, the activation is inactive: 7.84%.

`CCOc1ccc(NC(=O)c2c(NCc3ccc(C)o3)sc3c2CCC(C)C3)cc1` (stereo not drawn): the activation was inactive: -11.3%.

Consider `CCn1c(=O)cc(SCC(=O)NCCc2cc(OC)ccc2OC)c2ccccc21`, for which the activation was inactive: 20.7%.

Consider `CC(C)c1ccc(OC(=O)c2cc(-c3ccc(Cl)cc3)on2)cc1`, for which the activation was inactive: 11%.

For the compound `COc1ccc(CC(=O)NCC(c2ccc(N(C)C)cc2)N2CCOCC2)cc1` (stereo not drawn), the activation is inactive: -7.59%.

With `CCCNC(=O)N1[C@H](c2ccc(C)s2)[C@@H](C)C(=O)[C@@H](C)[C@@H]1c1ccc(C)s1`, the activation is inactive: -15.7%.

For the compound `CCN(CC)C(=O)Cn1c(=O)nc(-c2ccccc2F)c2cc(Cl)ccc21`, the activation is inactive: -14.5%.

Turning to `COC(=O)c1cnc(NCc2ccc(F)cc2)c2ccccc12`, the activation was inactive: -27.6%.

With `COc1ccc(N2C(=O)C(CC(=O)Nc3ccc(F)cc3)N(Cc3ccc4c(c3)OCO4)C2=O)cc1` (stereo not drawn), the activation was inactive: -4.28%.

For the compound `Cc1cc(F)ccc1S(=O)(=O)Nc1ccc2c(c1)CCCN2C(=O)c1cccs1`, the activation is inactive: 2.41%.

As to `CCOC(=O)Cc1ccc(NC(=O)NCc2cccn2Cc2ccccc2)cc1`, the activation is inactive: -12.7%.

In the case of `NC(=O)COCCN1CCN(C(c2ccccc2)c2ccc(Cl)cc2)CC1` (stereo not drawn), the activation is inactive: 0.798%.

Turning to `O=C1c2[nH]nc(-c3ccccc3O)c2C(c2ccccc2F)N1Cc1ccncc1` (stereo not drawn), the activation is inactive: 2.2%.

As for `Cc1ccc(NC(=O)CSc2nc(-c3cccs3)nc3cc(=O)[nH]n23)cc1`, the activation is active: 99.1%.

With `COc1ccc(-n2c(=O)c3sc4ccccc4c3n(CC(=O)Nc3ccccc3F)c2=O)cc1`, the activation was inactive: -11.5%.

As for `CCC(Cc1ccccc1)NC(=O)Cn1ncc2c3ccccc3n(Cc3ccccc3)c2c1=O` (stereo not drawn), the activation is inactive: 39.2%.

For the compound `CCOc1ccc(C(=O)c2cn(Cc3ccc(Cl)cc3)c3cc(OC)c(OC)cc3c2=O)cc1`, the activation is inactive: 2.63%.

For the compound `CCc1nc2nc(C)cc(Nc3ccc(OC)cc3OC)n2n1`, the activation is inactive: -6.04%.

In the case of `Cc1ccc(Nc2nnc(-c3ccc(C)c(S(=O)(=O)N4CCOCC4)c3)c3ccccc23)c(C)c1`, the activation is inactive: -16.7%.

Take `O=C1Nc2ccccc2C1(c1ccc(O)cc1)c1ccc(O)cc1`: the activation was inactive: -1.82%.

In the case of `Cc1ccc2c(c1)NC(=O)C(CC(=O)Nc1ccccc1Cl)O2` (stereo not drawn), the activation was inactive: -4.52%.

For the compound `CC(C)C1CCC(C(=O)N[C@H](Cc2ccccc2)C(=O)O)CC1` (stereo partly drawn), the activation is inactive: 3.66%.

For `Cc1oc(-c2ccc(Cl)cc2)nc1CN1CCC(C(=O)NCCCN2CCN(c3cccc(Cl)c3)CC2)CC1`, the activation was inactive: -2.62%.

`Cc1cc(C)n2nc(SCC(=O)Nc3ccccc3C)nc2n1`: the activation is inactive: -0.212%.

Turning to `Cc1ccc(Cl)cc1N1CCN(C(=O)c2cc(S(=O)(=O)N3CCCC3)cn2C)CC1`, the activation was inactive: -6.85%.

`CCOc1ccc(CNC(=O)C2CCN(S(=O)(=O)N3CCC(C)CC3)CC2)cc1OC`: the activation was inactive: -9.2%.

Turning to `CC1=C(C(=O)Nc2cccnc2)C(c2cccc(Br)c2)n2nc(SCc3ccccc3)nc2N1` (stereo not drawn), the activation is inactive: -3.19%.

Turning to `COc1ccc(C(=O)Nc2nc3nc(C)c(Cc4ccccc4)c(=O)n3[nH]2)cc1OC`, the activation was inactive: 1.84%.

On to `Cc1ccc(CNC(=O)COCc2cc(-c3cccs3)on2)cc1`, for which the activation was inactive: -2.44%.

With `CC(=O)c1cccc(NC(=O)CN2C=NS(=O)(=O)c3ccc(C)cc32)c1`, the activation is inactive: -4.65%.

Regarding `Cc1cccc(CNS(=O)(=O)c2ccc(-c3cnc(C4CC4)o3)cc2)c1`, the activation was inactive: -14.5%.

Consider `COc1cc(NC(=O)C2CCN(c3cnc4ccccc4n3)CC2)cc(OC)c1OC`, for which the activation was inactive: -8.7%.

Take `CC1=C(C(=O)Nc2ccccc2C)C(c2ccncc2)n2nc(SCc3ccccc3Cl)nc2N1` (stereo not drawn): the activation was inactive: -4.28%.

As for `CCn1c(=O)c2cc(C(=O)Nc3cc(OC)c(OC)c(OC)c3)sc2c2ccccc21`, the activation is inactive: 15.8%.

Regarding `Cn1ccc2cc(S(=O)(=O)N3CCCC(C(=O)NCc4ccccc4)C3)ccc21` (stereo not drawn), the activation was inactive: -22%.

Take `COc1ccc(S(=O)(=O)Nc2cccc(-c3ccc(N4CCC(C)CC4)nn3)c2)cc1OC`: the activation was inactive: -3.11%.

Consider `Cc1cc(-c2ccc(C)c(S(=O)(=O)NC(c3cccs3)C(C)C)c2)on1` (stereo not drawn), for which the activation was inactive: 12.2%.

Regarding `O=C(COc1ccc(F)cc1)OCc1cc(=O)n2nc(C3CCCCC3)sc2n1`, the activation is inactive: 24.6%.

On to `O=C(NCCS(=O)(=O)N1CCN(c2ccccc2)CC1)C1CC(=O)N(c2ccc(F)cc2)C1` (stereo not drawn), for which the activation is inactive: -8.34%.

For `COc1ccc(NC(=O)CCSc2nc(-c3ccc(OC)cc3)cc(C(F)(F)F)n2)cc1`, the activation is inactive: -12.6%.

Consider `CC(C)CCNC(=O)c1ccc2c(c1)NC(=O)C(CS(=O)(=O)Cc1ccc(F)cc1)N2` (stereo not drawn), for which the activation was inactive: -4.89%.

Consider `Cc1ccc(NC(=O)Cn2cc(C(=O)C3CC3)c3ccccc32)c(C)c1`, for which the activation was inactive: -3.36%.

On to `CCc1nnc(SCc2c(F)cccc2Cl)c2cc3sccc3n12`, for which the activation was inactive: 1.44%.

For the compound `COc1ccc(C(C(=O)NCc2ccccc2)N(C(=O)Cn2nnc3ccccc32)c2cccc(OC)c2)cc1` (stereo not drawn), the activation is inactive: -16.3%.

For `CC1=C(C(=O)N2CCN(c3cc(C)ccc3C)CC2)C2(CCC(C)CC2)OC1=O` (stereo not drawn), the activation was inactive: -21.8%.

In the case of `O=C(CSc1ncc2c(n1)-c1ccc(Cl)cc1N(Cc1ccccc1)S2(=O)=O)Nc1ccc(F)c(F)c1`, the activation was inactive: -1.22%.

On to `COc1ccc2c(Sc3ccccc3)c(C(=O)NCCc3ccc(Cl)cc3)[nH]c2c1`, for which the activation was inactive: -18.4%.

Consider `O=C(CN1C(=O)COc2ccc(S(=O)(=O)N3CCCC3)cc21)N1CCN(c2ccccc2)CC1`, for which the activation is inactive: -27%.

In the case of `COc1cc(OC)cc(C(=O)Nc2cc(-c3nc4cc(Cl)ccc4o3)ccc2Cl)c1`, the activation was inactive: 0.604%.

On to `CCN1CCN(CCCNC(=O)c2cc3c(s2)-c2ccccc2OC3)CC1`, for which the activation is inactive: -3.14%.

For the compound `CCOC(=O)C1CCCN(CC(=O)N2CCCc3c2c(=O)oc2ccc(OCc4ccccc4)cc32)C1` (stereo not drawn), the activation was inactive: -1.67%.

On to `CCc1ccc(NC(=O)c2sc3ncnc(N(C)C4CCCCC4)c3c2C)cc1`, for which the activation is inactive: -9.8%.

As for `O=C(NCc1ccc2c(c1)CCN2C(=O)c1ccccc1)c1cc2ccccc2[nH]1`, the activation is inactive: -9.5%.

Take `CC(=O)C1=C(c2ccc(C)cc2)N(C(C)=O)n2c(nnc2C2CCCCC2)S1`: the activation was inactive: -34.5%.

Regarding `COc1ccc(CNC(=O)Nc2ccc3c(c2)N(C)C(=O)c2ccccc2S3)cc1`, the activation was inactive: -19.6%.

`CCOc1ccc(C2C(C(N)=O)=C(C)Nc3nc(SCc4ccccc4)nn32)cc1` (stereo not drawn): the activation was inactive: -3.42%.

As for `CCCCNC(=O)CSc1nc2ccccc2nc1Cc1ccc(C)cc1`, the activation is inactive: -2.44%.

For the compound `COc1cccc(CN2C(=O)c3ccccc3Sc3ccc(C(=O)N(C)Cc4ccccc4)cc32)c1`, the activation was inactive: -16.8%.

As for `O=C(c1cccs1)c1cn(CCOc2ccccc2F)c2ccccc12`, the activation was inactive: -27%.

For `COc1cccc2cc(-c3nc(Nc4cccc(C)c4)sc3C)c(=O)oc12`, the activation was inactive: -18.5%.

For the compound `COc1cc(C2c3c(-c4ccccc4O)n[nH]c3C(=O)N2CCO)ccc1OCc1ccccc1` (stereo not drawn), the activation is inactive: -3.48%.

Consider `COc1cccc(CNC(=O)c2ccc3nc(-c4ccc(F)cc4)c(-c4ccc(F)cc4)nc3c2)c1`, for which the activation was inactive: -11.2%.

Take `CC(=O)c1cccc(NC(=O)c2nc3ccccc3n(C)c2=O)c1`: the activation is active: 62.1%.

For `CC(C)c1ccc(S(=O)(=O)c2nnn3c2nc(N2CCN(C)CC2)c2sccc23)cc1`, the activation is inactive: -7.64%.

In the case of `CCOC(=O)c1ccccc1NC(=O)c1c2c(nc3ccccc13)C(=O)N(C1CCCCC1)C2`, the activation was inactive: 0.559%.

For `COc1ccccc1OCC(=O)N(Cc1ccco1)Cc1ccccc1F`, the activation was inactive: -8.26%.

With `CC(CNC(=O)c1ccc2c(c1)nc1n2CCCCC1)c1ccccc1` (stereo not drawn), the activation is inactive: -14.8%.

With `CCOc1ccc(CC(=O)NC2CC(=O)N(c3cccc(F)c3)C2)cc1` (stereo not drawn), the activation was inactive: -2.76%.

For `O=c1cc(COc2ccc(Cl)cc2Cl)nc2scc(-c3ccccc3)n12`, the activation was inactive: 16.2%.

For the compound `CCOc1ccc(-n2c(=O)c3c(C)c(C)sc3n(CC(=O)C(C)(C)C)c2=O)cc1`, the activation was inactive: -6.62%.
